Reference: a collection of fitness landscapes (doi:10.1126/science.1257360)
This is one part of the list.

B1: PhoQ; a variant is named by its letters at X, in order, P23837 (parent)
chain: MKKLLRLFFPLSLRVRFLLATAAVVLVLSLAYGMVALIGYSVSFDKTTFRLLRGESNLFYTLAKWENNKLHVELPENIDKQSPTMTLIYDENGQLLWAQRDVPWLMKMIQPDWLKSNGFHEIEADVNDTSLLLSGDHSIQQQLQEVREDDDDAEMTHSVAVNVYPATSRMPKLTIVVVDTIPVELKSSYMVWSWFIYVLSANLLLVIPLLWVAAWWSLRPIEALAKEVRELEEHNRELLNPATTRELTSLVRNLNRLLKSERERYDKYRTTLTDLTHSLKTPLXXLQXXLRSLRSEKMSVSDAEPVMLEQISRISQQIGYYLHRASMRGGTLLSRELHPVAPLLDNLTSALNKVYQRKGVNISLDISPEISFVGEQNDFVEVMGNVLDNACKYCLEFVEISARQTDEHLYIVVEDDGPGIPLSKREVIFDRGQRVDTLRPGQGVGLAVAREITEQYEGKIVAGESMLGGARMEVIFGRQHSAPKDE

Variants of: B1
Assay: enrichment ratio after two sorts for PhoP signalling (ratio (wild type AVST 3.29)); higher = more functional
Conditions: with PhoP (E. coli)

Row | Variant | enrichment ratio
1 | KYLQ | ≤ 0.25
2 | SIWW | ≤ 0.25
3 | PRSV | ≤ 0.25
4 | PLTD | ≤ 0.25
5 | FMKV | ≤ 0.25
6 | WHTW | ≤ 0.25
7 | DTRE | ≤ 0.25
8 | HKGS | ≤ 0.25
9 | ISDY | ≤ 0.25
10 | FESW | ≤ 0.25
11 | ERWG | ≤ 0.25
12 | KLMC | ≤ 0.25
13 | CFAA | ≤ 0.25
14 | YWKA | ≤ 0.25
15 | FIGH | ≤ 0.25
16 | TGMP | ≤ 0.25
17 | NGVA | ≤ 0.25
18 | QYLF | ≤ 0.25
19 | YIGM | 0.38
20 | IVIK | ≤ 0.25
21 | LQSQ | ≤ 0.25
22 | RGYP | ≤ 0.25
23 | FSPF | ≤ 0.25
24 | WWSL | ≤ 0.25
25 | RLFQ | ≤ 0.25

Row | Variant | enrichment ratio
26 | INGN | ≤ 0.25
27 | ANGY | 7.14
28 | AHQV | ≤ 0.25
29 | RVQL | ≤ 0.25
30 | KCTC | ≤ 0.25
31 | TNYH | ≤ 0.25
32 | DMHD | ≤ 0.25
33 | SEMC | 18
34 | QLSM | 3.11
35 | LWDT | ≤ 0.25
36 | SSCT | 8.97
37 | PMSK | ≤ 0.25
38 | KMTF | ≤ 0.25
39 | LYPT | ≤ 0.25
40 | NKHE | ≤ 0.25
41 | WGWL | ≤ 0.25
42 | FPLP | ≤ 0.25
43 | NWDA | ≤ 0.25
44 | LAKD | ≤ 0.25
45 | TYTC | ≤ 0.25
46 | PGKL | ≤ 0.25
47 | QARK | ≤ 0.25
48 | NNEP | ≤ 0.25
49 | PSAC | ≤ 0.25
50 | SYRV | ≤ 0.25

Row | Variant | enrichment ratio
51 | HWGS | ≤ 0.25
52 | KPYW | ≤ 0.25
53 | ENRT | ≤ 0.25
54 | GGMP | ≤ 0.25
55 | GPAN | ≤ 0.25
56 | FDDH | ≤ 0.25
57 | HHRY | ≤ 0.25
58 | YQNE | ≤ 0.25
59 | QAGC | 4.31
60 | SQTV | 10.4
61 | SGRF | ≤ 0.25
62 | PIVR | ≤ 0.25
63 | ACQV | ≤ 0.25
64 | TWFW | ≤ 0.25
65 | YKAN | ≤ 0.25
66 | NYHP | ≤ 0.25
67 | FYHW | ≤ 0.25
68 | AWSQ | ≤ 0.25
69 | QIPP | ≤ 0.25
70 | LLRM | ≤ 0.25
71 | EGRN | ≤ 0.25
72 | RCCA | ≤ 0.25
73 | PKVK | ≤ 0.25
74 | GAMV | ≤ 0.25
75 | INKD | ≤ 0.25

Row | Variant | enrichment ratio
76 | PLQP | ≤ 0.25
77 | EFQE | ≤ 0.25
78 | SVNH | 3.33
79 | TGIC | ≤ 0.25
80 | AIPG | ≤ 0.25
81 | IKMF | ≤ 0.25
82 | VNCF | 1.95
83 | MSQE | ≤ 0.25
84 | ESMQ | ≤ 0.25
85 | CIFL | ≤ 0.25
86 | QSDI | 14.8
87 | MYAD | ≤ 0.25
88 | KQYA | ≤ 0.25
89 | IKSL | ≤ 0.25
90 | TDRN | ≤ 0.25
91 | INHL | ≤ 0.25
92 | MRCQ | ≤ 0.25
93 | PPPW | ≤ 0.25
94 | PYFQ | ≤ 0.25
95 | FKGF | ≤ 0.25
96 | FERF | ≤ 0.25
97 | RWYL | ≤ 0.25
98 | YRCR | ≤ 0.25
99 | SVFT | ≤ 0.25
100 | GLWV | ≤ 0.25

Row | Variant | enrichment ratio
101 | AATY | ≤ 0.25
102 | EYWG | ≤ 0.25
103 | NHPP | ≤ 0.25
104 | SLTM | 12.5
105 | WCFI | ≤ 0.25
106 | YTKH | ≤ 0.25
107 | HKCA | ≤ 0.25
108 | FGRH | ≤ 0.25
109 | NMPM | ≤ 0.25
110 | TYLP | ≤ 0.25
111 | AQHS | ≤ 0.25
112 | IFIW | ≤ 0.25
113 | KVNN | ≤ 0.25
114 | WLGL | ≤ 0.25
115 | HEVE | ≤ 0.25
116 | YECR | ≤ 0.25
117 | GFCD | ≤ 0.25
118 | FGKS | ≤ 0.25
119 | KGEC | ≤ 0.25
120 | FIQT | ≤ 0.25
121 | HGTG | ≤ 0.25
122 | LDEL | ≤ 0.25
123 | YTQD | ≤ 0.25
124 | NNMP | ≤ 0.25
125 | WPWE | ≤ 0.25

Row | Variant | enrichment ratio
126 | SYKE | ≤ 0.25
127 | IRFN | ≤ 0.25
128 | RVRE | ≤ 0.25
129 | HLGP | ≤ 0.25
130 | WERW | ≤ 0.25
131 | ERRT | ≤ 0.25
132 | GGIK | ≤ 0.25
133 | YTLK | ≤ 0.25
134 | TCNS | 16.1
135 | EYHV | ≤ 0.25
136 | FMDG | ≤ 0.25
137 | VWCV | ≤ 0.25
138 | ILVA | ≤ 0.25
139 | GPAG | ≤ 0.25
140 | NYVL | ≤ 0.25
141 | NPSY | ≤ 0.25
142 | DCES | ≤ 0.25
143 | AENY | 5.26
144 | QIFP | ≤ 0.25
145 | FQYH | ≤ 0.25
146 | APGG | ≤ 0.25
147 | FVLD | ≤ 0.25
148 | NIAA | ≤ 0.25
149 | LVFC | ≤ 0.25
150 | IHAN | ≤ 0.25

Row | Variant | enrichment ratio
151 | WTQY | ≤ 0.25
152 | IHHQ | ≤ 0.25
153 | HMPA | ≤ 0.25
154 | HTVL | 0.699
155 | PPYD | ≤ 0.25
156 | YEAE | ≤ 0.25
157 | ISWG | ≤ 0.25
158 | VTAK | ≤ 0.25
159 | GMRD | ≤ 0.25
160 | RRCK | ≤ 0.25
161 | AGTG | 4.46
162 | IMSH | ≤ 0.25
163 | ETWH | ≤ 0.25
164 | QGIQ | ≤ 0.25
165 | IVRQ | ≤ 0.25
166 | HWHA | ≤ 0.25
167 | WSNH | ≤ 0.25
168 | EEDI | ≤ 0.25
169 | KDTY | ≤ 0.25
170 | QFHN | ≤ 0.25
171 | KFDE | ≤ 0.25
172 | GKYR | ≤ 0.25
173 | SNRC | ≤ 0.25
174 | NCDM | ≤ 0.25
175 | PANN | ≤ 0.25

Row | Variant | enrichment ratio
176 | DWSH | ≤ 0.25
177 | IHQP | ≤ 0.25
178 | LGSY | ≤ 0.25
179 | KVVC | ≤ 0.25
180 | FNYA | ≤ 0.25
181 | QDMM | ≤ 0.25
182 | YRLF | ≤ 0.25
183 | IRMR | ≤ 0.25
184 | DANH | ≤ 0.25
185 | QHTS | ≤ 0.25
186 | QMQK | ≤ 0.25
187 | GRGM | ≤ 0.25
188 | YCCG | ≤ 0.25
189 | MSLG | 4.62
190 | PQGD | ≤ 0.25
191 | TIPD | ≤ 0.25
192 | HYCK | ≤ 0.25
193 | SHMG | 17.8
194 | IPLV | ≤ 0.25
195 | VEDS | 0.659
